Measurements reported in PubChem BioAssay (Tox21).
Values joined by “and” are separate entries in the source; they are usually repeats but may differ in a detail not shown here. Equal entries are not always repeated. The inconclusive results got no clear call from the source; some entries with a clear call stand among them for comparison. Where the call is inconclusive, the potency comes from a doubtful curve fit. The source holds several records for some structures; these can differ, active in one and inactive in another. Active and inactive are the calls of the source. Unless noted, calls come from the whole dose curve. *1 amine or outer side, *2 acyl side, *3 side chain or, on linkers, in order; H or OH if unused. Where a SMILES comes first, the peptide text is derived from it. Bridges are numbered along the chain shown (N, C = ends). Roman numbers before positions name the chains, in order. [ ]: non-standard residue; d: D form. Actinocin(9to1) = Cc1c2oc3c(C)ccc(C(=O)[*:1])c3nc-2c(C(=O)[*:2])c(N)c1=O; NMeV = CN[C@H](C(=O)O)C(C)C; Sar = CNCC(=O)O

Legend:
[1] = qHTS assay to identify small molecule agonists of the endoplasmic reticulum stress response signaling pathway (AID 1159516; active = well fitted activation curve with a large enough effect in the signal ratio in the repeat runs, not every such curve was filed as active; inconclusive = weak or mixed curves, or effect the other way; the % refers to the signal ratio; for activation: % is set by controls: 0 for no effect and ±100 for the full control effect); details: ESRE-bla HeLa, ER stress beta-lactamase reporter, 5 h; activation: at 61 µM (top of the series) unless noted
Summary of the method: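 Beta-lactamase expression from the ER stress response element in HeLa reporter cells is quantified with the LiveBLAzer B/G FRET substrate, read at 405 nm excitation after 2 hr at room temperature, following 5 hr compound treatment at 37 C.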

[2] = qHTS assay to identify small molecule agonists of the endoplasmic reticulum stress response signaling pathway - cell viability counter screen (AID 1159517); note: nearly all actives have a fitted effect of over 50% in size
Summary of the method: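 After overnight attachment, ESRE-bla HeLa cells were treated with Tox21 library compounds for 5 hr. CellTiter-Glo luminescence, read 30 min post-addition at room temperature, reported viability.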

[3] = target: Nuclear receptor ROR-gamma (Homo sapiens) (UniProt P51449); assay: qHTS assay to identify small molecule antagonists of the retinoid-related orphan receptor gamma (ROR-gamma) signaling pathway (AID 1159521; active = well fitted curve in the direction sought with a large enough effect in the repeat runs; inconclusive = weak or mixed curves; inactive = no such curve, though single readings can be large; an effect the other way counts as inactive or inconclusive; note: nearly all actives have a fitted effect of over 50% in size)
Summary of the method: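 Test compounds were applied to Tet-on RORγ CHO cells 2 h ahead of doxycycline hyclate (1 uM final). Luciferase reporter activity was quantified by luminescence after 16 h at 37 C and 5% CO2.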

[4] = target: Retinoic acid receptor RXR-alpha (Homo sapiens) (UniProt P19793); assay: qHTS assay to identify small molecule agonists of the RXR signaling pathway (AID 1159527); details: HEK293T RXRa-UAS-bla, beta-lactamase ratio, 16 h; activation: at 76.8 µM (top of the series) unless noted; note: nearly all actives have a fitted effect of over 35% in size; for activation: % is set by controls: 0 for no effect and ±100 for the full control effect
Summary of the method: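 Using 9-cis retinoic acid as the reference agonist, chemicals were tested in HEK 293T cells […] for 16 hr; substrate loading lasted 2 hr at room temperature.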

[5] = qHTS assay to identify small molecule agonists of the AP-1 signaling pathway (AID 1159526); details: ME-180 (cervical carcinoma) AP-1-bla reporter, beta-lactamase FRET ratio, 5 h; activation: at 76.8 µM (top of the series) unless noted; for activation: % is set by controls: 0 for no effect and ±100 for the full control effect
[6] = qHTS assay to identify small molecule agonists of the RXR signaling pathway - cell viability counter screen (AID 1159529; active = well fitted curve in the direction sought with a large enough effect in the repeat runs; inconclusive = weak or mixed curves; inactive = no such curve, though single readings can be large; an effect the other way counts as inactive or inconclusive; note: nearly all actives have a fitted effect of over 50% in size)
Summary of the method: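 Compounds dissolved in DMSO were pinned onto HEK 293T cells carrying a beta-lactamase reporter under RXR-alpha control and incubated 16 hr. Cytotoxicity was then quantified by CellTiter-Glo luminescence.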

[7] = qHTS assay to identify small molecule antagonists of the vitamin D receptor (VDR) signaling pathway - cell viability counter screen (AID 743225; active = well fitted curve in the direction sought with a large enough effect in the repeat runs; inconclusive = weak or mixed curves; inactive = no such curve, though single readings can be large; an effect the other way counts as inactive or inconclusive; note: nearly all actives have a fitted effect of over 50% in size); details: VDR-bla HEK293T viability, CellTiter-Glo luminescence, 16 h; viability change, negative = cytotoxic: at 61 µM (top of the series) unless noted
Summary of the method: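 Compounds were pinned onto VDR-bla HEK 293T cells together with 1-alpha,25-dihydroxyvitamin D3 at 3 nM final. After 16 h at 37C and 5% CO2 plus the reporter readout, cell viability was measured by CellTiter-Glo luminescence (30 min, room temperature).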

[8] = qHTS assay to identify small molecule antagonists of the retinoid-related orphan receptor gamma (ROR-gamma) signaling pathway - cell viability counter screen (AID 1159520; active = well fitted curve in the direction sought with a large enough effect in the repeat runs; inconclusive = weak or mixed curves; inactive = no such curve, though single readings can be large; an effect the other way counts as inactive or inconclusive; note: nearly all actives have a fitted effect of over 50% in size; for activity, negative = cytotoxicity: % is set by controls: 0 for no effect and ±100 for the full control effect)
Summary of the method: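 Cytotoxicity was read from cellular ATP (CellTiter-Glo luminescence) after 16 hr at 37 C with 1 uM doxycycline induction. The inducer was added 2 hr after compound transfer to Tet-on ROR gamma CHO cells.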

[9] = qHTS assay to identify small molecule agonists of the AP-1 signaling pathway - cell viability counter screen (AID 1159525); note: nearly all actives have a fitted effect of over 55% in size
Summary of the method: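 Intracellular ATP by Cell Titer Glo luminescence (30 min, RT) in the same ME-180 AP-1-bla wells after the 5 h compound exposure at 37 °C. Normalised to tetra n-octyl ammonium bromide and DMSO controls.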
Potency is the fitted concentration of half-maximal effect; tags give direction and shape of the fitted curve or compound fluorescence and quenching.

Sequence of UniProt P19793 (P19793 whole entry, looked up): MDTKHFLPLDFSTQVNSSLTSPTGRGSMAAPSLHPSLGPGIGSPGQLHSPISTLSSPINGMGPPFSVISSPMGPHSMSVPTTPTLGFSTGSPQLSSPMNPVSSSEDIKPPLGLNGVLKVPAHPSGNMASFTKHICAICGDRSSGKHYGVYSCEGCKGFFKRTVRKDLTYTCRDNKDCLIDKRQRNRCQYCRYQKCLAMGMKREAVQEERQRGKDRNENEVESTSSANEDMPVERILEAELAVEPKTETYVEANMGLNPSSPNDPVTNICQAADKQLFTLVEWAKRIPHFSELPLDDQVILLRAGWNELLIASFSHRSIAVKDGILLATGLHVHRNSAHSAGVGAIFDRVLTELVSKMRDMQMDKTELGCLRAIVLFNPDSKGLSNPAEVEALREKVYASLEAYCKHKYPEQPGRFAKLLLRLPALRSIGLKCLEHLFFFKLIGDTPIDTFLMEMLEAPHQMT

Clc1ccc2nsnc2c1NC1=NCCN1
Potency [1]: inconclusive: 13.4 µM [rising, partial curve, poor fit] | Potency [2]: inconclusive: 9.52 µM [cytotoxic, single point] | Potency [3]: inconclusive: 1.5 µM [inhibitor, partial curve, poor fit] | Potency [4]: inactive

[Cl][In]([Cl])[Cl]
Potency [1]: inconclusive: 56.5 µM [activator, single point] | Potency [2]: inconclusive: 0.195 µM [cytotoxic, single point] | Potency [3]: inconclusive: 4.99 µM [inhibitor, full curve, poor fit] | Potency [5]: inactive | Potency [4]: inconclusive: 11 µM [activator, partial curve, poor fit] | Potency [6]: inconclusive: 5.49 µM [rising, full curve]

CCCCCCCCCCCCCCCC[N+](C)(C)CCN(Cc1ccc(OC)cc1)c1ncccn1
Potency [7]: active: 19 µM | activation [1]: inconclusive: 0.218% | Potency [2]: active: 21.3 µM | Potency [8]: active: 29.8 µM | Potency [9]: active: 21.3 µM | Potency [5]: inconclusive: 23.9 µM [falling, partial curve] | Potency [4]: inconclusive: 19 µM [cytotoxic, partial curve] | Potency [6]: active: 5.35 µM

O=C(Nc1ccc2c(O)c(N=Nc3ccc(N=Nc4ccc(S(=O)(=O)O)cc4)cc3)c(S(=O)(=O)O)cc2c1)c1ccccc1
Potency [1]: inactive | Potency [2]: inconclusive: 5.49 µM [cytotoxic, single point] | Potency [3]: inconclusive: 19.3 µM [inhibitor, partial curve, poor fit] | Potency [5]: inconclusive: 30.9 µM [activator, partial curve, poor fit]

O=C1c2ccccc2C(=O)C1(O)O
Potency [1]: inconclusive: 43.9 µM [partial curve] | Potency [2]: active: 49.2 µM | Potency [8]: active: 61.4 µM | Potency [5]: inconclusive: 15.6 µM [activator, partial curve] | Potency [6]: inconclusive: 22 µM [cytotoxic, partial curve, poor fit]

CCCCC(CC)COC(=O)c1ccccc1C(=O)O (stereo unspecified)
Potency [7]: inconclusive: 22.3 µM [cytotoxic] | Potency [1]: inconclusive: 0.0353 µM [rising, full curve] | Potency [2]: inconclusive: 0.0887 µM [cytotoxic, full curve, poor fit] | Potency [3]: inconclusive: 0.0124 µM [inhibitor, full curve, poor fit] | Potency [9]: inactive | Potency [5]: inconclusive: 4.44 µM [activator, full curve] | Potency [4]: inconclusive: 22.3 µM

CCCCCCCCCCCCCC[n+]1ccccc1
Potency [1]: inconclusive: 61.6 µM [cytotoxic, single point] | Potency [2]: active: 17.4 µM | Potency [8]: active: 61.1 µM | Potency [5]: inconclusive: 54.9 µM [cytotoxic, single point] | Potency [4]: inconclusive: 7.76 µM

Cc1c(C)c2c(c(C)c1OC(=O)CCC(=O)O)CC[C@@](C)(CCC[C@H](C)CCC[C@H](C)CCCC(C)C)O2
Potency [1]: inconclusive: 22.1 µM [falling, partial curve, poor fit] | Potency [2]: inconclusive: 62.4 µM [cytotoxic, partial curve, poor fit] | Potency [8]: active: 27.6 µM | Potency [9]: inconclusive: 15.7 µM [cytotoxic, partial curve, poor fit] | Potency [5]: inconclusive: 24.8 µM [falling, partial curve, poor fit] | Potency [4]: inconclusive: 2.79 µM [rising, full curve] | Potency [6]: inconclusive: 1.97 µM [cytotoxic, full curve]

CCN(CC)CCNC(=O)c1c(C)[nH]c(/C=C2\C(=O)Nc3ccc(F)cc32)c1C
Potency [7]: inconclusive: 12 µM [cytotoxic, partial curve, poor fit] | Potency [1]: inconclusive: 7.56 µM [rising, partial curve] | Potency [2]: active: 7.56 µM | Potency [8]: inconclusive: 29.8 µM [cytotoxic, partial curve] | Potency [3]: inconclusive: 1.88 µM [inhibitor, full curve, poor fit] | Potency [4]: inconclusive: 0.535 µM | Potency [6]: active: 7.56 µM

NC(=NCCCCCCN=C(N)/N=C(\N)Nc1ccc(Cl)cc1)/N=C(\N)Nc1ccc(Cl)cc1
Potency [7]: inconclusive: 30.1 µM [cytotoxic, single point] [middle of 5 runs] | Potency [1]: inconclusive: 54.7 µM [cytotoxic, single point] [middle of 4 runs] | Potency [2]: inconclusive: 48.7 µM [cytotoxic] | Potency [3]: inconclusive: 9.44 µM [inhibitor, full curve, poor fit] | Potency [9]: inconclusive: 54.6 µM [cytotoxic, single point] [middle of 4 runs] | Potency [5]: inconclusive: 54.7 µM [cytotoxic, single point] [middle of 4 runs]

CCCCCCCCCCCCCCCC(=O)OC
Potency [1]: inactive | Potency [2]: inactive | activity, negative = cytotoxicity [8]: inactive: 1.29% [at 19 µM] | activation [5]: inactive: 17.1% [at 15.8 µM]

O=C(/C=C/c1ccccc1)OCCCc1ccccc1
Potency [1]: inactive | Potency [2]: inconclusive: 0.0022 µM [cytotoxic, full curve, poor fit] | Potency [3]: inactive

CC/C=C\C/C=C\C/C=C\CCCCCCCC(=O)O
Potency [7]: inconclusive: 3.89 µM [cytotoxic, single point] | Potency [1]: inconclusive: 49 µM | Potency [2]: inactive | Potency [3]: inactive and inconclusive: 306 nM [inhibitor, single point] | Potency [5]: inactive and inconclusive: 43.6 µM

CN1C(=O)N(c2ccccc2Br)Cc2cnc(Nc3ccc4c(c3)OCC(CO)O4)nc21 (stereo unspecified)
Potency [7]: inconclusive: 17.4 µM [cytotoxic, partial curve] | Potency [1]: inconclusive: 13.8 µM [cytotoxic, full curve] | Potency [2]: inconclusive: 43.6 µM [cytotoxic, partial curve, poor fit] | Potency [8]: inconclusive: 19.3 µM [cytotoxic, full curve] | activation [5]: inconclusive: -19% | Potency [6]: active: 0.245 µM

CCCC/C=C/CCCCO
Potency [1]: inconclusive: 61.6 µM [falling, partial curve, poor fit] | Potency [2]: inactive | Potency [8]: inactive | activation [5]: inconclusive: 12.4% | Potency [4]: inconclusive: 24.5 µM [activator]

CCOC(=O)c1ccccc1C(=C1C=C(Br)C(=O)C(Br)=C1)c1cc(Br)c(O)c(Br)c1
Potency [1]: inconclusive: 0.92 µM [rising, full curve, poor fit] | Potency [2]: inconclusive: 41.1 µM [rising, single point] | Potency [8]: active: 51.3 µM | Potency [5]: inconclusive: 16.4 µM [activator, single point] | activation [4]: inconclusive: -32.3% [at 35.3 µM]

Brc1cc2ccccc2c2ccccc12
Potency [7]: inactive | Potency [1]: inconclusive: 49.3 µM [cytotoxic] | Potency [2]: inconclusive: 49.3 µM [cytotoxic, single point] | Potency [3]: active: 21.8 µM | Potency [5]: inconclusive: 55.4 µM [falling, single point] | Potency [4]: inconclusive: 17.5 µM [inhibitor, full curve] | Potency [6]: inconclusive: 22 µM [cytotoxic, full curve, poor fit]

Cc1cc(C2(c3cc(C)c(O)cc3C)OS(=O)(=O)c3ccccc32)c(C)cc1O
Potency [7]: inactive | Potency [1]: inconclusive: 2.45 µM [rising, partial curve, poor fit] | Potency [2]: inconclusive: 1.1 µM [cytotoxic, single point] and inconclusive: 49 µM [cytotoxic, partial curve, poor fit] | Potency [3]: inconclusive: 30.6 µM [inhibitor, partial curve] | Potency [4]: inconclusive: 21.9 µM [activator] and inactive | Potency [6]: inconclusive: 49 µM [rising, partial curve, poor fit] and inconclusive: 61.7 µM [rising, partial curve, poor fit]

CN1CCN(CCCN2c3ccccc3Sc3ccc(S(=O)(=O)N(C)C)cc32)CC1
Potency [7]: active: 23.9 µM | Potency [1]: inactive | Potency [2]: inactive | Potency [3]: inconclusive: 26.6 µM [inhibitor, partial curve, poor fit] | Potency [9]: inactive | Potency [5]: inactive

CC(C)(C)C1CCC(CC2=C(O)c3ccccc3C(=O)C2=O)CC1 (stereo unspecified)
Potency [1]: inconclusive: 26.8 µM [activator, single point] | Potency [2]: inactive | Potency [8]: inconclusive: 13.3 µM [cytotoxic, partial curve, poor fit] | Potency [5]: inconclusive: 21.3 µM | Potency [4]: inconclusive: 2.39 µM [rising, full curve, poor fit]

Cc1c2oc3c(C)ccc(C(=O)N[C@@H]4C(=O)N[C@H](C(C)C)C(=O)N5CCC[C@H]5C(=O)N(C)CC(=O)N(C)[C@@H](C(C)C)C(=O)O[C@@H]4C)c3nc-2c(C(=O)N[C@@H]2C(=O)N[C@H](C(C)C)C(=O)N3CCC[C@H]3C(=O)N(C)CC(=O)N(C)[C@@H](C(C)C)C(=O)O[C@@H]2C)c(N)c1=O (I: T[dV]P[Sar][NMeV] / II: T[dV]P[Sar][NMeV]; ester I:1-I:C, II:1-II:C; linker I:N-II:N via Actinocin(9to1))
Potency [1]: inconclusive: 16.9 nM [rising, full curve] and inconclusive: 67.4 nM [rising, full curve] | Potency [2]: active: 26.8 nM and active: 107 nM | Potency [8]: active: 59.4 nM and active: 59.6 nM | Potency [5]: inconclusive: 0.0755 µM [fluorescent] | activation [5]: inconclusive: -16.5% [at 35.3 µM]
